In PubChem BioAssay (NCATS):
Values joined by “and” are separate entries in the source; they are usually repeats but may differ in a detail not shown here. Equal values may be shown once. Inconclusive results, whose numbers are uncertain, are shown with a selection of clear calls. For some of these results: Where the call is inconclusive, the potency comes from a doubtful curve fit. Active and inactive are the calls of the source. Calls come from the whole dose curve; as a rule, active = well fitted curve in the direction sought with a large enough effect; inconclusive = small, poorly fitted or top-dose-only effect, or another doubt; inactive = no such curve, though single readings can be large; an effect the other way counts as inactive or inconclusive.

Legend:
[1] = Viability qHTS for spleen associated tyrosine kinase inhibitor (SYKi) naive MV4-11 cells (AID 1963823); settings: MV4-11 AML viability, CellTiter-Glo luminescence, 72 h; viability (% of control): at 45 µM (top of the series); note: nearly all actives have a fitted effect of over 40% in size
Summary of the method: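 qHTS, SYK inhibitor-naive MV4-11; 500 cells/well; 72 hr compound exposure, 37 C; CellTiter-Glo added, 10 min RT; luminescence read.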

[2] = Quantitative highthroughput screen to assess conditional lethalithy of NOMO1 cells grown in RPMI1640 with untreated serum (RPMI+s) (AID 1963876); settings: NOMO1 AML cells in RPMI+serum, CellTiter-Glo viability, 48 h; viability: at 45.8 µM (top of the series); note: nearly all actives have a fitted effect of over 35% in size;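 for Viability: 100% = DMSO wells and 0% = empty wells without cells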
Summary of the method: (§1)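 Each medium arm—HPLM with 10% dialyzed FBS, or RPMI1640 with 5 mM glucose and 10% untreated or dialyzed FBS—was screened against an 11-point, 3-fold compound titration for 48 h at 37 °C, with CellTiter-Glo luminescence as endpoint.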

[3] = Quantitative highthroughput screen to assess conditional lethalithy of NOMO1 cells grown in RPMI1640 with dialyzed fetal bovine serum (RPMI+ds) (AID 1963877); note: nearly all actives have a fitted effect of over 30% in size;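 for Viability: 100% = DMSO control wells and 0% = empty wells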
Summary of the method: as §1

[4] = Quantitative highthroughput screen to assess conditional lethalithy of NOMO1 cells grown in Human Plasma-Like Medium with dialyzed fetal bovine serum (HPLM+ds) (AID 1963878); settings: NOMO1 AML cells in HPLM+ds, CellTiter-Glo viability, 48 h; viability: at 45.8 µM (top of the series); note: nearly all actives have a fitted effect of over 35% in size;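 for Viability: 100% = DMSO wells and 0% = empty wells on each plate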
Summary of the method: as §1

[5] = Quantitative highthroughput screen to assess conditional lethalithy of P12 Ichikawa cells grown in Human Plasma-Like Medium with dialyzed fetal bovine serum (HPLM+ds) (AID 1963879); settings: Potency: viability; note: nearly all actives have a fitted effect of over 35% in size
Summary of the method: as §1

[6] = Quantitative highthroughput screen to assess conditional lethalithy of P12 Ichikawa cells grown in RPMI1640 with dialyzed fetal bovine serum (RPMI+ds) (AID 1963880); settings: Potency: P12-Ichikawa viability; note: nearly all actives have a fitted effect of over 35% in size;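 for Viability: 100% = DMSO wells and 0% = empty wells on each plate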
Summary of the method: as §1

[7] = Quantitative highthroughput screen to assess conditional lethalithy of SEM cells grown in Human Plasma-Like Medium with dialyzed fetal bovine serum (HPLM+ds) (AID 1963882); note: nearly all actives have a fitted effect of over 35% in size
Summary of the method: as §1

[8] = Quantitative highthroughput screen to assess conditional lethalithy of SEM cells grown in RPMI1640 with dialyzed fetal bovine serum (RPMI+ds) (AID 1963884); settings: SEM B-ALL cells, RPMI+dialyzed FBS, CellTiter-Glo viability, 48 h; viability: at 45.8 µM (top of the series); note: nearly all actives have a fitted effect of over 35% in size
Summary of the method: as §1

[9] = Cellular viability qHTS for adrenocortical cancer (ACC) cell line SW-13 (AID 1963989); settings: SW-13 ACC cells viability, CellTiter-Glo, 48 h; activity (max response): active compounds read low; note: nearly all actives have a fitted effect of over 65% in size;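 for activity (max response): cells grown in serum-free medium with ITS supplement; % is set by controls: 0 for no effect and ±100 for the full control effect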
Summary of the method: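 48 h treatment, SW-13 in ITS/DMEM serum-free; doses up to 46 uM; readout CellTiter-Glo luminescence; curve fit four-parameter logistic.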

[10] = Cellular viability qHTS for adrenocortical cancer (ACC) cell line NCI-H295R (AID 1963990); settings: CellTiter-Glo ATP luminescence, 48 h; activity change, negative = viability loss: at 46.1 µM (top of the series); note: nearly all actives have a fitted effect of over 60% in size;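 for activity change, negative = viability loss: 0% = DMSO only wells and -100% = full killing with cytotoxic reference compound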
Summary of the method: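 Compound titrations (up to 46 uM final) are applied to NCI-H295R cultures for 48 h at 37C. Viable cell number is estimated by CellTiter-Glo signal, normalised to DMSO and doxorubicin controls.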

[11] = Quantitative highthroughput screen to assess conditional lethalithy of P12 Ichikawa cells grown in RPMI1640 with untreated serum (RPMI+s) (AID 1963881); settings: Potency: viability; note: nearly all actives have a fitted effect of over 35% in size;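 for Viability: 100% = DMSO wells and 0% = empty wells without cells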
Summary of the method: as §1

[12] = Quantitative highthroughput screen to assess conditional lethalithy of SEM cells grown in RPMI1640 with unreated serum (RPMI+s) (AID 1963883); settings: SEM B-ALL cells, CellTiter-Glo viability, 48 h; viability: at 45.8 µM (top of the series); note: nearly all actives have a fitted effect of over 35% in size
Summary of the method: as §1
Potency is the fitted concentration of half-maximal effect; tags give direction and shape of the fitted curve.

COc1ccc2cc3[n+](cc2c1OC)CCc1cc2c(cc1-3)OCO2
inactive: Potency [10]
active: Potency [1] 4.22 µM and 1.48 µM | Potency [5] 18.7 µM | Potency [8] 18.7 µM | Potency [9] 10.3 µM and 8.91 µM
inconclusive: Potency [2] 20.9 µM [cytotoxic, partial curve] | Potency [3] 20.9 µM [cytotoxic, partial curve] | Potency [4] 11.8 µM [cytotoxic, partial curve] | Potency [6] 13.2 µM [cytotoxic, partial curve] | Potency [7] 26.4 µM [cytotoxic, single point]

COc1ccc(C(=O)CC2(O)C(=O)Nc3c(Cl)ccc(Cl)c32)cc1 (stereo not given)
active: Potency [2] 9.35 µM | Potency [11] 4.69 µM | Potency [7] 4.18 µM | Potency [12] 3.72 µM
inactive: activity (max response) [9] -14.9%
inconclusive: Potency [1] 0.742 µM [cytotoxic, full curve] | Potency [3] 8.33 µM [cytotoxic, full curve] | Potency [4] 6.62 µM [cytotoxic, full curve] | Potency [6] 5.9 µM [cytotoxic, full curve]

CCCCc1oc2ccccc2c1C(=O)c1cc(I)c(OCCN(CC)CC)c(I)c1
inconclusive: Potency [2] 29.6 µM [cytotoxic, single point] | Potency [4] 18.7 µM [cytotoxic, partial curve] | Potency [9] 29.1 µM [cytotoxic, single point] | Potency [10] 29.1 µM [cytotoxic, single point]
active: Potency [1] 18.8 µM | Potency [3] 20.9 µM
inactive: Potency [5] | Potency [11] | Potency [7]

CC(C)n1cnc2c(NCCc3ccc(O)cc3)nc(-c3csc4ccccc34)nc21
inconclusive: Potency [2] 13.2 µM [cytotoxic, partial curve] | Potency [3] 13.2 µM [cytotoxic, partial curve] | Potency [4] 4.18 µM [cytotoxic, full curve] | Potency [9] 35.5 µM [cytotoxic, single point]
active: Potency [1] 14.8 µM | Potency [5] 3.72 µM | Potency [6] 13.2 µM | Potency [8] 5.26 µM

Cc1cc(-c2ccc(CC(=O)Nc3ccc(-c4cccnc4)cc3)cc2)ccn1
inconclusive: Potency [1] 16.6 µM [cytotoxic, partial curve] | Potency [2] 9.35 µM [cytotoxic, partial curve] | Potency [3] 9.35 µM [cytotoxic, partial curve] | Potency [4] 3.72 µM [cytotoxic, full curve]
active: Potency [6] 10.5 µM | Potency [11] 16.6 µM

CCN1CCC(n2cc(CNc3cc(Cl)c4ncc(C#N)c(Nc5ccc(F)c(Cl)c5)c4c3)nn2)CC1
inconclusive: Potency [2] 20.9 µM [cytotoxic, partial curve] | Potency [3] 20.9 µM [cytotoxic, partial curve] | Potency [4] 2.96 µM [cytotoxic, full curve, poor fit] | Potency [6] 13.2 µM [cytotoxic, partial curve] | Potency [9] 28.2 µM [cytotoxic, single point]
active: Potency [1] 13 µM | Potency [7] 18.7 µM | Potency [8] 13.2 µM

N=C(N)c1ccc(OCCCCCOc2ccc(C(=N)N)cc2)cc1
inactive: Potency [6]
inconclusive: Potency [1] 4.73 µM [cytotoxic, partial curve] and 1.86 µM [cytotoxic, full curve] | Potency [2] 20.9 µM [cytotoxic, partial curve] | Potency [3] 14.8 µM [cytotoxic, partial curve] | Potency [4] 14.8 µM [cytotoxic, partial curve] | Potency [11] 18.7 µM [cytotoxic, partial curve, poor fit] | Potency [7] 26.4 µM [cytotoxic, single point] | Potency [12] 33.2 µM [cytotoxic, single point] | Potency [8] 33.2 µM [cytotoxic, single point] | Potency [10] 4.61 µM [cytotoxic, partial curve] and 17.8 µM [cytotoxic, partial curve, poor fit]

O=C(Nc1cccc(Br)c1)c1cccc(S(=O)(=O)N2CCCCCC2)c1
inactive: Potency [2] | Potency [3] | Potency [4]
inconclusive: Potency [1] 7.31 µM [cytotoxic, partial curve] | Potency [6] 29.6 µM [cytotoxic, single point] | Potency [11] 37.2 µM [cytotoxic, single point] | Potency [7] 20.9 µM [cytotoxic, partial curve] | Potency [12] 16.6 µM [cytotoxic, partial curve] | Potency [8] 18.7 µM [cytotoxic, partial curve] | Potency [10] 7.08 µM [cytotoxic, single point]
